{
  "source": "the supplement of paper PMC3334620",
  "note": "The full ranking holds about 33,000 sequences; the median of “E-score (-0.5 to 0.5)” is about -0.04, and the highest 2% start at about 0.36. The list shows a part of the results.",
  "data": [
    {"target": "T1, Hmlalpha2 (UniProt P0CY09)", "T1 sequence": "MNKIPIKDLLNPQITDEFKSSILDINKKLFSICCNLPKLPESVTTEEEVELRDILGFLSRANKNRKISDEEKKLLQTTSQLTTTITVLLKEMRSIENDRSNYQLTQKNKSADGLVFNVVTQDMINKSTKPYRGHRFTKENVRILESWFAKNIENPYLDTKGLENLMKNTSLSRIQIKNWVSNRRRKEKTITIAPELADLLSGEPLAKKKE", "assay": "PBM E-score (8-mer binding enrichment) (E-score (-0.5 to 0.5)); higher = stronger / more preferred TF binding; most listed sequences are background and not binding sites", "details": "protein concentration: 200 nM; construct: GST-full length", "method_in_brief": "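E-scores (a modified Wilcoxon-Mann-Whitney statistic) were assigned by the Universal PBM Analysis Suite to every ungapped eight-base word pooled with its reverse complement. The input came from universal all-10-mer Agilent arrays made double-stranded by primer extension and probed with GST-tagged yeast transcription factors at about 100-200 nM. Fluorescent anti-GST detected bound protein, and masliner normalised the scans.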", "values": [
      {"sequence": "ATGTCGAC", "PBM E-score": 0.27},
      {"sequence": "AATGTGAT", "PBM E-score": 0.196},
      {"sequence": "GTCATGAA", "PBM E-score": -0.00218},
      {"sequence": "AAGATCGA", "PBM E-score": -0.076},
      {"sequence": "CTCGTCCA", "PBM E-score": -0.0515},
      {"sequence": "AGGGTGTA", "PBM E-score": 0.186},
      {"sequence": "ACGGTCGC", "PBM E-score": -0.157},
      {"sequence": "GATTCACC", "PBM E-score": -0.147},
      {"sequence": "GTCGACCA", "PBM E-score": -0.0364},
      {"sequence": "AGCGCACC", "PBM E-score": -0.244},
      {"sequence": "AGGCTACT", "PBM E-score": -0.204},
      {"sequence": "AAAGGACC", "PBM E-score": -0.247},
      {"sequence": "CTCTGAGC", "PBM E-score": -0.0568},
      {"sequence": "CTACTGGC", "PBM E-score": -0.355},
      {"sequence": "CTGGCCCC", "PBM E-score": -0.254},
      {"sequence": "AACACTCG", "PBM E-score": 0.0192},
      {"sequence": "GGTCCACA", "PBM E-score": -0.072},
      {"sequence": "ATGACCAA", "PBM E-score": 0.0477},
      {"sequence": "CTCCAGCA", "PBM E-score": -0.338},
      {"sequence": "AATAGCGC", "PBM E-score": 0.0666},
      {"sequence": "GCCCCTAC", "PBM E-score": -0.234},
      {"sequence": "AGTTAAAA", "PBM E-score": 0.282},
      {"sequence": "GGATAGCC", "PBM E-score": -0.247},
      {"sequence": "ACAAGGTA", "PBM E-score": 0.291},
      {"sequence": "CCGAACAC", "PBM E-score": 0.121},
      {"sequence": "AAGTATGA", "PBM E-score": 0.0611},
      {"sequence": "CGGGAACC", "PBM E-score": -0.205},
      {"sequence": "AAGTGTTC", "PBM E-score": 0.0292},
      {"sequence": "GTAGTCAA", "PBM E-score": 0.131},
      {"sequence": "AAGAGAAT", "PBM E-score": -0.02},
      {"sequence": "ATTGCTAC", "PBM E-score": 0.0786},
      {"sequence": "GTGTAACA", "PBM E-score": 0.411},
      {"sequence": "TCGTAAGA", "PBM E-score": -0.0353},
      {"sequence": "GACTTGGA", "PBM E-score": -0.228},
      {"sequence": "CGACGAAA", "PBM E-score": 0.097},
      {"sequence": "AATTCCAT", "PBM E-score": 0.0359},
      {"sequence": "CGGTCTGC", "PBM E-score": -0.133},
      {"sequence": "ATTGTCCC", "PBM E-score": -0.103},
      {"sequence": "GATAACCC", "PBM E-score": -0.124},
      {"sequence": "ACCCGGTG", "PBM E-score": -0.111},
      {"sequence": "ACGATGAA", "PBM E-score": 0.174},
      {"sequence": "CAAATGGC", "PBM E-score": -0.0309},
      {"sequence": "ACGGTGGC", "PBM E-score": -0.235},
      {"sequence": "AAAGAAGA", "PBM E-score": -0.057},
      {"sequence": "CGTTGGAC", "PBM E-score": 0.00625},
      {"sequence": "CCGGTATC", "PBM E-score": -0.219},
      {"sequence": "AACGCAGG", "PBM E-score": 0.0539},
      {"sequence": "ACCGTAGA", "PBM E-score": 0.0129},
      {"sequence": "GTACTTCA", "PBM E-score": 0.248},
      {"sequence": "CTATCGAA", "PBM E-score": 0.00957},
      {"sequence": "ACGCGGAA", "PBM E-score": 0.209},
      {"sequence": "AACCACCG", "PBM E-score": -0.211},
      {"sequence": "CATCATCA", "PBM E-score": 0.0483},
      {"sequence": "GACATTTA", "PBM E-score": 0.191},
      {"sequence": "AGCACTCA", "PBM E-score": -0.16},
      {"sequence": "CGTACACG", "PBM E-score": 0.354},
      {"sequence": "AAGGGCGG", "PBM E-score": -0.169},
      {"sequence": "ACGACACC", "PBM E-score": -0.157},
      {"sequence": "CATCTCAG", "PBM E-score": -0.12},
      {"sequence": "CATGCAAA", "PBM E-score": 0.306},
      {"sequence": "CAGCTGCG", "PBM E-score": -0.141},
      {"sequence": "CACCATAG", "PBM E-score": -0.203},
      {"sequence": "CATAACAC", "PBM E-score": 0.397},
      {"sequence": "CCAACCTA", "PBM E-score": -0.139},
      {"sequence": "GGCCAAAA", "PBM E-score": -0.0125},
      {"sequence": "AGATGCGG", "PBM E-score": -0.145},
      {"sequence": "CGAATCCC", "PBM E-score": -0.0202},
      {"sequence": "ACACTACT", "PBM E-score": 0.105},
      {"sequence": "AAATTCAA", "PBM E-score": 0.0676},
      {"sequence": "CATCCTAA", "PBM E-score": -0.0863},
      {"sequence": "TGACTTAA", "PBM E-score": 0.0506},
      {"sequence": "ACACAAGC", "PBM E-score": 0.331},
      {"sequence": "CTTTGTAC", "PBM E-score": 0.2},
      {"sequence": "ATACCCAT", "PBM E-score": 0.106},
      {"sequence": "GGTCTTAA", "PBM E-score": -0.101},
      {"sequence": "ACTGCCAG", "PBM E-score": -0.137},
      {"sequence": "AACACGTG", "PBM E-score": 0.348},
      {"sequence": "CTAGGCCA", "PBM E-score": -0.33},
      {"sequence": "TCTTGAAA", "PBM E-score": 0.103},
      {"sequence": "CATGACAA", "PBM E-score": 0.166},
      {"sequence": "GAGAATAC", "PBM E-score": 0.242},
      {"sequence": "AAGCCGCG", "PBM E-score": 0.0123},
      {"sequence": "CCCCGTCC", "PBM E-score": -0.382},
      {"sequence": "CCGCATGA", "PBM E-score": -0.0972},
      {"sequence": "CCTCTAGC", "PBM E-score": -0.184},
      {"sequence": "ACGCCATA", "PBM E-score": -0.0309},
      {"sequence": "CAGCCAGG", "PBM E-score": -0.111},
      {"sequence": "ATAGTATC", "PBM E-score": 0.147},
      {"sequence": "AATGGACC", "PBM E-score": 0.0737},
      {"sequence": "ACCTGATG", "PBM E-score": -0.103},
      {"sequence": "AGCAAGTA", "PBM E-score": 0.227},
      {"sequence": "ACAGAATG", "PBM E-score": -0.013},
      {"sequence": "ACATTTGC", "PBM E-score": 0.123},
      {"sequence": "AAAACGCA", "PBM E-score": 0.171}
    ]}
  ]
}
